# Reference: the supplement of paper PMC9588766
# Structures can show the parent of a compound that is named as a salt. Whole data set: some 1,900 compounds, median “cell viability of compound + 1 nM pemigatinib relative to pemigatinib-only (DMSO) wells” near 0.95, cut for the lowest 2% near 0.22. Some of the results follow.
# Tested on: PDC-DUC18828
# Test: cell viability of compound + 1 nM pemigatinib relative to pemigatinib-only (DMSO) wells (fraction); PDC-DUC18828 is a patient-derived cholangiocarcinoma cell line; higher = less growth inhibition
# Details: first compound 1 µM; pemigatinib concentration 1 nM; 72 h
# Experimental: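 Selleck Bioactive library screen in the patient-derived FGFR2 fusion-positive ICC cell line PDC-DUC18828 (500 cells/well). Each compound was tested at 1 uM with 1 nM pemigatinib, in triplicate, for 72 h. Viability was read by CellTiter-Glo and normalised to plate DMSO controls. Value is the paper's averaged normalised viability.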
row,SMILES,cell viability
1,CN(C)CC(=O)Nc1ccc2[nH]c(=O)c3ccccc3c2c1 + CCN1C(=O)N(c2c(F)c(OC)cc(OC)c2F)Cc2cnc3[nH]c(CN4CCOCC4)cc3c21 [pemigatinib],0.986
2,CNC(=O)c1cc(Oc2ccc(NC(=O)Nc3ccc(Cl)c(C(F)(F)F)c3)c(F)c2)ccn1 [Regorafenib (BAY 73-4506)] + CCN1C(=O)N(c2c(F)c(OC)cc(OC)c2F)Cc2cnc3[nH]c(CN4CCOCC4)cc3c21 [pemigatinib],0.971
3,CC(C)(C)NCC(O)COc1cccc2c1CCC(=O)N2 (centres undefined) [Carteolol HCl] + CCN1C(=O)N(c2c(F)c(OC)cc(OC)c2F)Cc2cnc3[nH]c(CN4CCOCC4)cc3c21 [pemigatinib],0.986
4,CN1CCC(=C2c3ccccc3CCc3cccnc32)CC1 [Azatadine dimaleate] + CCN1C(=O)N(c2c(F)c(OC)cc(OC)c2F)Cc2cnc3[nH]c(CN4CCOCC4)cc3c21 [pemigatinib],0.658
5,Nc1nc2ccc(OC(F)(F)F)cc2s1 [Riluzole] + CCN1C(=O)N(c2c(F)c(OC)cc(OC)c2F)Cc2cnc3[nH]c(CN4CCOCC4)cc3c21 [pemigatinib],1.03
6,COc1ccc2c(c1)c(CC(=O)O)c(C)n2C(=O)c1ccc(Cl)cc1 [Indomethacin] + CCN1C(=O)N(c2c(F)c(OC)cc(OC)c2F)Cc2cnc3[nH]c(CN4CCOCC4)cc3c21 [pemigatinib],0.967
7,CC(C)C[C@H](NC(=O)[C@@H](NC(=O)c1cccc(-c2ccccc2)n1)[C@@H](C)O)B(O)O + CCN1C(=O)N(c2c(F)c(OC)cc(OC)c2F)Cc2cnc3[nH]c(CN4CCOCC4)cc3c21 [pemigatinib],0.0169
8,CNC(=O)c1cc(Oc2ccc(NC(=O)Nc3cc(C(C)(C)C)nn3-c3ccc4ncccc4c3)c(F)c2)ccn1 [DCC-2036 (Rebastinib)] + CCN1C(=O)N(c2c(F)c(OC)cc(OC)c2F)Cc2cnc3[nH]c(CN4CCOCC4)cc3c21 [pemigatinib],0.995
9,OC[C@H]1O[C@H](O[C@]2(CCl)O[C@H](CCl)[C@@H](O)[C@@H]2O)[C@H](O)[C@@H](O)[C@H]1Cl [Sucralose] + CCN1C(=O)N(c2c(F)c(OC)cc(OC)c2F)Cc2cnc3[nH]c(CN4CCOCC4)cc3c21 [pemigatinib],0.967
10,C[C@@H]1CCO[C@H]2Cn3cc(C(=O)NCc4ccc(F)cc4F)c(=O)c(O)c3C(=O)N12 + CCN1C(=O)N(c2c(F)c(OC)cc(OC)c2F)Cc2cnc3[nH]c(CN4CCOCC4)cc3c21 [pemigatinib],0.997
11,O=C(C1CCCCC1)N1CC(=O)N2CCc3ccccc3C2C1 (centres undefined) [Praziquantel] + CCN1C(=O)N(c2c(F)c(OC)cc(OC)c2F)Cc2cnc3[nH]c(CN4CCOCC4)cc3c21 [pemigatinib],0.929
12,C[C@]1(O)C[C@@H](c2nc(-c3ccc4ccc(-c5ccccc5)nc4c3)c3c(N)nccn32)C1 [OSI-906 (Linsitinib)] + CCN1C(=O)N(c2c(F)c(OC)cc(OC)c2F)Cc2cnc3[nH]c(CN4CCOCC4)cc3c21 [pemigatinib],0.866
13,COc1cc2nccc(Oc3ccc(NC(=O)Nc4cc(C)on4)c(Cl)c3)c2cc1OC [Tivozanib (AV-951)] + CCN1C(=O)N(c2c(F)c(OC)cc(OC)c2F)Cc2cnc3[nH]c(CN4CCOCC4)cc3c21 [pemigatinib],0.868
14,CC(C)(C#N)c1cc(Cn2cncn2)cc(C(C)(C)C#N)c1 [Anastrozole] + CCN1C(=O)N(c2c(F)c(OC)cc(OC)c2F)Cc2cnc3[nH]c(CN4CCOCC4)cc3c21 [pemigatinib],0.981
15,C[C@@H](O)[C@H]1C(=O)N2C(C(=O)O)=C(S[C@@H]3CN[C@H](CNS(N)(=O)=O)C3)[C@H](C)[C@H]12 [Doripenem Hydrate] + CCN1C(=O)N(c2c(F)c(OC)cc(OC)c2F)Cc2cnc3[nH]c(CN4CCOCC4)cc3c21 [pemigatinib],0.992
16,COc1cccc(-n2c(=O)[nH]c3cc(Cl)n(-c4ccc(-c5cccc(OC)c5O)cc4)c3c2=O)c1 + CCN1C(=O)N(c2c(F)c(OC)cc(OC)c2F)Cc2cnc3[nH]c(CN4CCOCC4)cc3c21 [pemigatinib],0.951
17,COc1cccc(-c2cc(=O)c3ccccc3o2)c1N + CCN1C(=O)N(c2c(F)c(OC)cc(OC)c2F)Cc2cnc3[nH]c(CN4CCOCC4)cc3c21 [pemigatinib],0.929
18,CN(C)CCOC(C)(c1ccccc1)c1ccccn1 (centres undefined) [Doxylamine Succinate] + CCN1C(=O)N(c2c(F)c(OC)cc(OC)c2F)Cc2cnc3[nH]c(CN4CCOCC4)cc3c21 [pemigatinib],0.946
19,C=CCNC(N)=S [Allylthiourea] + CCN1C(=O)N(c2c(F)c(OC)cc(OC)c2F)Cc2cnc3[nH]c(CN4CCOCC4)cc3c21 [pemigatinib],0.985
20,CNC(=O)c1cccc(-c2ccc3c(N4CCOC[C@@H]4C)nc(N4CCOC[C@@H]4C)nc3n2)c1 + CCN1C(=O)N(c2c(F)c(OC)cc(OC)c2F)Cc2cnc3[nH]c(CN4CCOCC4)cc3c21 [pemigatinib],0.255
21,Nc1ccn([C@H]2CC[C@@H](CO)O2)c(=O)n1 [Zalcitabine] + CCN1C(=O)N(c2c(F)c(OC)cc(OC)c2F)Cc2cnc3[nH]c(CN4CCOCC4)cc3c21 [pemigatinib],1.01
22,CCc1cc(Nc2nccc(-c3c(-c4ccc(OC)c(C(=O)Nc5c(F)cccc5F)c4)nc4ccccn34)n2)c(OC)cc1N1CCC(N2CCN(S(C)(=O)=O)CC2)CC1 + CCN1C(=O)N(c2c(F)c(OC)cc(OC)c2F)Cc2cnc3[nH]c(CN4CCOCC4)cc3c21 [pemigatinib],1.01
23,CNC[C@H](O)c1ccc(O)c(O)c1 [Epinephrine HCl] + CCN1C(=O)N(c2c(F)c(OC)cc(OC)c2F)Cc2cnc3[nH]c(CN4CCOCC4)cc3c21 [pemigatinib],0.879
24,CNC[C@H](O)c1ccc(O)c(O)c1 [Epinephrine Bitartrate] + CCN1C(=O)N(c2c(F)c(OC)cc(OC)c2F)Cc2cnc3[nH]c(CN4CCOCC4)cc3c21 [pemigatinib],0.983
